Laboratory results published in PMC4336329 (PLoS ONE, 2015).
About 2,200 (0.71%) of roughly 310,000 compounds showed an effect of 50% or more. Effects have a minus sign here. The list shows a part of the results.

Target: human ether-à-go-go-related gene (hERG) potassium channel (human, UniProt Q12809)
Test: primary screen, population patch clamp on CHO cells stably expressing hERG

human ether-à-go-go-related gene (hERG) potassium channel, sequence (Q12809 whole entry, looked up): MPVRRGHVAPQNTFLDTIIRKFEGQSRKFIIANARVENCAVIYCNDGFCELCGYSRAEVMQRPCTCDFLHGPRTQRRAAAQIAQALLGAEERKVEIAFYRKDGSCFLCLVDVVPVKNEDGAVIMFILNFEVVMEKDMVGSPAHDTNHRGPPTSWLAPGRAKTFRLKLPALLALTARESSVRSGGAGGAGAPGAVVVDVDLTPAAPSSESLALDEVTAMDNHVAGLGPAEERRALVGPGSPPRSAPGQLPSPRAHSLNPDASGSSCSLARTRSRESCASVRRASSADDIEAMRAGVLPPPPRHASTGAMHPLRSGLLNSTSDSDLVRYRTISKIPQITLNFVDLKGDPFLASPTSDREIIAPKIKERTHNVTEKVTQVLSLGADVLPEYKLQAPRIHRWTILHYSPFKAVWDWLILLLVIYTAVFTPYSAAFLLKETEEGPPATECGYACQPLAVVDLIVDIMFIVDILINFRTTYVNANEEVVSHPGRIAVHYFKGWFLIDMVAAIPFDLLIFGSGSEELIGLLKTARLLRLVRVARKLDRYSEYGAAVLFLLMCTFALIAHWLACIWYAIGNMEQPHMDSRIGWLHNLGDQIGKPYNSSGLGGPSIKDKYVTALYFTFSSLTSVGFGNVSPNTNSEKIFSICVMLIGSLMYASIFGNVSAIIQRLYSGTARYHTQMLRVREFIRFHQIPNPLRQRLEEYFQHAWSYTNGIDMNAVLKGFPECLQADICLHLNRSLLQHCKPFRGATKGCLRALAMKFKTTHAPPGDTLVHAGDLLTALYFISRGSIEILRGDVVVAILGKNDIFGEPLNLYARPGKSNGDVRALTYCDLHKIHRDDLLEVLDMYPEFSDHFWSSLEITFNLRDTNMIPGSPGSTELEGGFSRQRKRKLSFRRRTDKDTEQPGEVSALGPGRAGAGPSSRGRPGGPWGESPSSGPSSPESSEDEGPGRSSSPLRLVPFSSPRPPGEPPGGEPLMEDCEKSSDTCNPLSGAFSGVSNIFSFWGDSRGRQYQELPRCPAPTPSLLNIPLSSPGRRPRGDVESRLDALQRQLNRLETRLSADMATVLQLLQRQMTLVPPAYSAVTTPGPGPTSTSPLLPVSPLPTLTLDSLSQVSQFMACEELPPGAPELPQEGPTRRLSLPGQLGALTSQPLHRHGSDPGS

Row | Structure (SMILES) | hERG current change (%, negative = inhibition) at 1uM [%]
1 | Cc1cccc(-c2noc(-c3ccoc3C)n2)c1 | 4.61
2 | O=C(CSc1nncs1)Nc1ccc2c(c1)OCO2 | 7.78
3 | Clc1ccc(N=c2ssnc2Cl)cc1 | 14.7
4 | N#CCC1c2ccccc2CCN1C(=O)Nc1ccc(Cl)cc1 (stereo not shown) | 1.25
5 | CCOC(=O)C1=C(CS(=O)(=O)c2ccccc2)NC(=O)NC1c1ccccc1OC (stereo not shown) | 11.5
6 | Cc1ccc(-n2c(CSc3nc(C)cc(C)n3)nnc2SCC(=O)N2CCCC2)cc1 | 9.42
7 | CCN(CC(=O)Nc1ccccc1-c1ccccc1)Cc1nc2ccccc2c(=O)[nH]1 | 2.63
8 | CC1CC2C3CCC4=CC(=O)C=CC4(C)C3(F)C(O)CC2(C)C1(O)C(=O)CO (stereo not shown) | 12.2
9 | CC(=O)c1c(C)[nH]c(C(=O)Nc2ccc(Cl)cc2F)c1C | 9.69
10 | COc1cc(OC)cc(C(=O)N[C@H](C(=O)OCC(=O)Nc2ccc(F)c(F)c2)C(C)C)c1 | 12.1
11 | CCOc1cc(NC(=O)CCl)c(OCC)cc1NC(=O)CCl | 14.1
12 | COC(=O)C1=C(c2cccc(OCc3ccccc3)c2)C[C@@H]2CC[C@H]1N2C(=O)NCc1cc(C)oc1C(F)(F)F | 10.5
13 | CCSC1=C(C#N)C2(CCCCC2)C(C#N)=C(N)N1 | 9.78
14 | CCOC(=O)C1CCN(S(=O)(=O)c2cc(F)ccc2OC)CC1 | 8.83
15 | Cc1cccc(C2c3[nH]c4ccccc4c3CCN2C(=O)c2cc3c([nH]c2=O)CCCC3)n1 (stereo not shown) | 4.42
16 | COC(=O)C1=C(C)Nc2ncnn2C1c1ccccn1 (stereo not shown) | 1.41
17 | COc1ccc2[nH]c3c(c2c1)[C@@H]1CCN2C(=O)CCC[C@H](C3)[C@H]12 | -15
18 | Cc1cc(S(=O)(=O)N(C)CCc2ccccc2)ccc1-n1cnnn1 | 1.09
19 | COc1ccc(C(=O)Nc2cccc3c2CCCC3)cc1 | 15
20 | COCCCNC(=O)C1CC(=O)N(CCc2ccc(F)cc2)C1 (stereo not shown) | 8.14
21 | Cn1cccc1C(=O)OCC(=O)c1cc2ccccc2o1 | 11.3
22 | S=c1[nH]nc(C2CCCCC2)n1/N=C/c1ccc(Cl)cc1 | 8.99

Row | Structure (SMILES) | hERG current change (%, negative = inhibition) at 1uM [%]
23 | CCn1c(O)c(N=NC2=NC(=O)CS2)c2cc(C)ccc21 | 9.35
24 | CCn1ccc(C(=O)Nc2c(C)nn(Cc3c(F)c(F)c(F)c(F)c3F)c2C)n1 | 15.4
25 | CC(=O)N1CCCc2cc(S(=O)(=O)CCC(=O)Nc3cccc(C)c3C)ccc21 | 13.8
26 | Cc1sc(NC(=O)C2CSC3(C)CCC(=O)N23)nc1-c1ccccc1 (stereo not shown) | 3.27
27 | CCCc1nnc(NC(=O)c2cccs2)s1 | 21.5
28 | CCn1cc(C(=S)N2CCC(C(N)=O)CC2)c2ccccc21 | 6.71
29 | O=C(COc1ccccc1-c1ccccc1)c1ccccc1 | 4.72
30 | Oc1c(CN2CCN(c3ccccn3)CC2)cc(Cl)c2cccnc12 | 6.67
31 | O=S(=O)(c1ccc(SCc2cccc(Cl)c2)nc1)N1CCCC1 | 0.329
32 | CC(=O)Nc1ccc(S(=O)(=O)N2CCN(C(=O)C3COc4ccccc4O3)CC2)cc1 (stereo not shown) | 9.27
33 | COCCNC(=O)C(c1cccc(OC)c1)N(Cc1cccs1)C(=O)Cn1nnc2ccccc21 (stereo not shown) | 12.4
34 | CCOC(=O)CN1C(=O)CC(c2ccccc2)C1=O (stereo not shown) | 6.6
35 | COc1ccc(NS(=O)(=O)c2ccc(NC(=S)NC(=O)/C=C/c3ccc(C)cc3)cc2)nn1 | 9.4
36 | Cc1cccc(-c2nc3ccccc3c(=O)n2NC(=O)c2cccs2)c1 | 9.27
37 | COc1ccc(Cl)cc1S(=O)(=O)N1CCN(C(=O)COc2ccccc2)CC1 | 1.31
38 | CCOc1cc(C2NC(=O)NC(O)(C(F)(F)F)C2C(=O)c2ccc(OC)cc2)ccc1O (stereo not shown) | 5.27
39 | CCCCCC/C(=N\NS(C)(=O)=O)c1ccccc1 | 11.9
40 | O=C(c1ccc2c(=O)n(Cc3ccco3)c(=S)[nH]c2c1)N1CCN(c2ccccc2)CC1 | 13.8
41 | O=C(/C=C/c1ccc([N+](=O)[O-])cc1)Nc1cccnc1 | -31.4
42 | N#C/C(=C\c1ccccc1OCC(=O)O)c1nc2ccccc2[nH]1 | 5.93
43 | COCCCn1c(C)nnc1SCC(=O)Nc1ccc(C(C)=O)cc1 | 13
44 | COc1ccc(CN(C(=O)c2oc3ccccc3c2C)C2CCS(=O)(=O)C2)cc1OC (stereo not shown) | 1.51

Row | Structure (SMILES) | hERG current change (%, negative = inhibition) at 1uM [%]
45 | C=CCn1c(Cc2ccc(OC)cc2)nnc1SCC(=O)c1cccc([N+](=O)[O-])c1 | 0.577
46 | CCOc1cccc(OCCCCn2cnc3ccccc3c2=O)c1 | 11.4
47 | Cc1cc(SCC(=O)Nc2ncc(Cl)cc2Cl)nc2ccccc12 | 9.1
48 | O=C(NN=C1C2CC3CC(C2)CC1C3)c1ccncc1 | -0.112
49 | O=C(NCCN1Cc2ccccc2C1=O)c1cccs1 | 7.4
50 | O=C(NC(=S)Nc1c(F)cc(F)cc1Br)c1ccc2c(c1)OCCO2 | 19.5
51 | C=CCn1c(-c2ccc(N)cc2)nc2ccccc21 | 11.8
52 | Cc1ccccc1NNC(=O)C(=O)NNc1ccccc1C | 10.7
53 | O=c1c2ccccc2nc(Cc2cccc([N+](=O)[O-])c2)n1-c1ccc(O)cc1 | 4.44
54 | CC1CCN(c2nc(N(C)c3ccccc3)nc(N)c2[N+](=O)[O-])CC1 | 10
55 | CCCCc1ccc(NC(=O)CC(C)=O)cc1 | -13.1
56 | CCCCn1c(N)c(N(CC)C(=O)c2cc(S(=O)(=O)N3CCCCCC3)ccc2OC)c(=O)[nH]c1=O | 5.44
57 | O=C(Nc1cnc2sc3c(n2c1=O)CCCC3)c1ccc(F)cc1 | 4.4
58 | CNC(=O)Nc1ccccc1C(=O)NCc1ccccc1 | 2.19
59 | COc1ccc(S(=O)(=O)Nc2cc(C)nn2-c2ccccc2)cc1 | 10.1
60 | Cc1c2cn[nH]c(=O)c2c(C)n1-c1ccccc1 | 15.3
61 | COCc1c(C(=O)N/N=C(/C)c2ccc(OCc3ccccc3)cc2)nnn1-c1nonc1N | 9
62 | COc1cc(C(c2c(C)[nH][nH]c2=O)c2c(C)[nH][nH]c2=O)cc(Cl)c1O | 13.3
63 | COC(=O)C1=C(c2ccc(OC)c(OC)c2)C[C@@H]2CC[C@H]1N2C(=O)N1CCCC1 | 13.6
64 | COc1ccc(S(=O)(=O)N(C)CC(=O)Nc2ccc(F)cc2)cc1 | 9.66
65 | CC1CCN(CCOCCSc2ccc(Cl)cc2)CC1.O=C(O)C(=O)O | -19.3
66 | O=C(CNC(=O)c1ccc(Br)cc1)OCC(=O)c1ccccc1 | 6.37

Row | Structure (SMILES) | hERG current change (%, negative = inhibition) at 1uM [%]
67 | CCC(C)(C)NC(=O)C(c1ccc(C)cc1)N(CC1CCCO1)C(=O)c1csnn1 (stereo not shown) | 11.6
68 | CC(C)(C)C1CCc2c(C(=O)N/N=C/c3cccs3)csc2C1 (stereo not shown) | -2.06
69 | Cc1cc(/C=C2\C(=O)NC(=S)N(C)C2=O)c(C)n1C1CCCCC1 | 10.3
70 | O=C(CN1CCCc2ccccc21)Nc1ccccc1[N+](=O)[O-] | 22.7
71 | c1cncc(-c2nc(N3CCCCCC3)c3ccccc3n2)c1 | -42.8
72 | CCn1nc(C(=O)N2CCN(Cc3ccc4c(c3)OCO4)CC2)c2ccccc2c1=O | -33.2
73 | CCCN(Cc1nnc(-c2ccccc2Cl)o1)C(=O)COc1ccc(Cl)cc1 | -20.7
74 | N#CC(C#N)=Cc1ccc(-c2ccccc2)o1 | 3.25
75 | O=C1C(c2ccc(F)cc2)N(CC2COc3ccccc3O2)C(=O)CN1C1CCCCC1 (stereo not shown) | -17.8
76 | NS(=O)(=O)c1ccc(CCNC(=O)c2cccc3ccccc23)cc1 | 11.6
77 | NC(=O)c1nc[nH]c1C(=O)Nc1cccc(C(F)(F)F)c1 | 9.75
78 | CC(C)CC(=O)N1CCN(C(=O)c2ccc(F)cc2)CC1 | 17.4
79 | CCOc1ccccc1NC(=S)N1CCC(c2nc3ccccc3o2)CC1 | 10.3
80 | Cc1c(Cc2ccccc2)sc(/N=C/c2c(O)ccc3ccccc23)c1C(N)=O | -0.0249
81 | O=C(c1cccc(Cl)c1)N1CCN(S(=O)(=O)c2ccc(Cl)s2)CC1 | 8.22
82 | COc1ccc(C)cc1NC(=O)CSc1nnc(CC(=O)Nc2ccccc2F)n1C | 11.8
83 | Cc1ccc(-c2nn(-c3cccc(F)c3)cc2CN2CCN(c3ccccn3)CC2)o1 | -0.655
84 | Cc1ncsc1C(=O)Nc1nc2c(s1)CC(C)CC2 (stereo not shown) | 12
85 | Cn1c(O)c(C=NCc2cccs2)c(=O)n(C)c1=O | 6.26
86 | CCC(Oc1ccccc1C)C(=O)N1CCCN(C)CC1 (stereo not shown) | 14
87 | Cc1ccc(-c2noc(CN(C(=O)CCCN3C(=O)c4ccccc4C3=O)C(C)C)n2)cc1 | -6.27
88 | CC(=O)N1c2ccc(S(=O)(=O)NCC3CCC(C(=O)NCc4ccc(C)o4)CC3)cc2CC1C (stereo not shown) | 14.6
